In all, about 110,000 compounds were measured (“z-score”: median about -0.1, highest 2% from about 2 on). Some of the results follow. Activity calls are given as the source filed them.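 How the source made its calls: active means z-score in the third read window above 3 or below -3; inactive means the rest.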

The assay has as its target Metabotropic glutamate receptor 8 (Rattus norvegicus) (UniProt P70579). As to the kind of experiment: mGluR8 Gi/Go-coupled signaling modulation – cell-based, rat, thallium flux, HTS, primary screen (AID 488969). As to conditions: HEK293 rat mGluR8, GIRK (G protein-gated inwardly rectifying potassium channel) thallium flux, FluoZin2; at 10 µM; stronger effect = higher value; submaximal glutamate (EC20) added with thallium.
Chain of UniProt P70579 (P70579 whole entry, looked up): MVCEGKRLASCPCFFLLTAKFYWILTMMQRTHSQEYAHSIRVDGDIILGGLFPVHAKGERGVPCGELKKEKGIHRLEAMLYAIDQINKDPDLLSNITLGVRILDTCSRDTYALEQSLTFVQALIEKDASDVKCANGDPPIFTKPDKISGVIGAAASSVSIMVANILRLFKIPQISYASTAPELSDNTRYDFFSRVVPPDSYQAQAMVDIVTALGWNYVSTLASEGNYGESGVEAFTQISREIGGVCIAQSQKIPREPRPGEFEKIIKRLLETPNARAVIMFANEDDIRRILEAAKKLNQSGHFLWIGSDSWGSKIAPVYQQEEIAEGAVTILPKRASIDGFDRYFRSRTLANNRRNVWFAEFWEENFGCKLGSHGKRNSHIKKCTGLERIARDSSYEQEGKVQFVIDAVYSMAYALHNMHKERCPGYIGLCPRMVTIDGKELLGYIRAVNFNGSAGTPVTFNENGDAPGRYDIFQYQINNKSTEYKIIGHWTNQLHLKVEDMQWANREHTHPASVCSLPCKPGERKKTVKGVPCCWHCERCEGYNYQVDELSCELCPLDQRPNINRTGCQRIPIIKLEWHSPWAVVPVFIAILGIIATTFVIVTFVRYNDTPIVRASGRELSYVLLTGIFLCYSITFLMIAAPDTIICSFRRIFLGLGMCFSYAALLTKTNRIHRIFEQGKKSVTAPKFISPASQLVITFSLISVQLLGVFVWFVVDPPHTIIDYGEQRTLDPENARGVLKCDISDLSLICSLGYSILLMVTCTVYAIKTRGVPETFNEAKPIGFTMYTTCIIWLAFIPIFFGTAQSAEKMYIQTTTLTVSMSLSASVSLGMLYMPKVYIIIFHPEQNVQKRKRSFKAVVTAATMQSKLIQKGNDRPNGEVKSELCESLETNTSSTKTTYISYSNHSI
Consider `O=C1c2ccccc2C(=O)N1CC1c2ccccc2CCN1C(=O)C1CCCCC1` (stereo not given), for which the z-score is -0.696.
In the case of `O=C(c1ccccc1)N1CCN(C(=S)NCCc2ccccc2)CC1` it was -0.236; in that of `COC(=O)c1ccc(Cl)c(NC(=O)CN2CCN(C)CC2)c1`, active: 4.17; in that of `O=C(CSc1nc2ccccc2c(=O)n1-c1ccc(F)cc1)Nc1ccc(N2CCOCC2)cc1`, -0.000577.
The result for `O=[N+]([O-])c1cc(-c2nnc(Nc3ccccc3)c3ccccc23)ccc1N1CCOCC1` reads -0.434; that for `COCCCN(C(=S)Nc1cc(C)cc(C)c1)C(C)c1ccncc1` (stereo not given), 0.0403.
In turn, `O=C(Nc1ccccc1)N(Cc1cccnc1)Cc1ccco1` gave a z-score of -0.311.
`CCn1c(SC)nc(O)c(C(c2ccc(OC)c(O)c2)c2c(O)nc(SC)n(CC)c2=O)c1=O`: the z-score was determined as 0.358.
The result for `CCC1(C)Cc2ccccc2-c2nc(NCCO)n(-c3ccc(C)cc3)c(=O)c21` (stereo not given) reads -0.864.
In the case of `O=C(CN1CCN(c2ccccn2)CC1)N1c2ccccc2Sc2ccc(C(F)(F)F)cc21` it was -0.136; in that of `NS(=O)(=O)c1ccc(CCNC(=O)C(=O)c2c[nH]c3ccccc23)cc1`, -0.3.
The result for `CS(=O)(=O)Nc1ccc(C(=O)NCCC2=CCCCC2)cc1` reads 1.28; that for `Cn1c(=O)c2c(SC3CCCC3)nc(CC(C)(C)C)nc2n(C)c1=O`, -1.66.
Regarding `Cc1cccc(C)c1OCc1nnc(SCC(=O)Nc2ccccc2F)o1`, the z-score was determined as 0.69.
The result for `C#CCN1C(=O)C(O)(CC(=O)c2cc(OC)ccc2OC)c2ccccc21` (stereo not given) reads 0.241; that for `COc1ccc(Cc2c(N)nc(N)nc2N)cc1`, -0.264; that for `CCOC(=O)Cc1c(C)nc2c(C#N)c[nH]n2c1=O`, -0.0481.
In the case of `COCCCn1c(Cc2csc(Nc3ccc(F)cc3)n2)nnc1SCC(N)=O` it was -0.304.
The result for `Cc1cccc(CSc2nc3sc(C)c(C)c3c(=O)n2Cc2ccco2)c1` reads 0.131; that for `CCOc1ccc(-n2c(SCc3cc(=O)oc4cc(C)ccc34)nnc2-c2cccnc2)cc1`, -0.153.
`CCS(=O)(=O)N1Cc2ccccc2CC1C(=O)Nc1nc2ccccc2s1` (stereo not given) gave a z-score of 1.5.
As to `CC(=O)Nc1ccc(NC(=O)C2CCCN(c3ncccn3)C2)cc1` (stereo not given), the z-score was -1.02.
In the case of `CCCOc1ccc(C(=O)O/N=C(\CC)c2ccc(C)cc2)cc1` it was -0.321.
The result for `COC(=O)c1ccc(/C=N/Nc2nc(-c3ccc(C)cc3)cs2)cc1` reads -0.105; that for `COc1c(C)cc(Br)cc1C(=O)Nc1cccc(-c2nc3ncccc3o2)c1`, -0.243; that for `CCC(OC(=O)CC1Sc2ccccc2NC1=O)C(=O)NCC1CCCO1` (stereo not given), -0.994.
In the case of `COc1ccc(C2CC(=O)c3sc(N)nc3C2)cc1` (stereo not given) it was -0.151; in that of `CC(C)(C)n1nnnc1C(c1cccs1)N(Cc1ccccc1)Cc1ccco1` (stereo not given), -1.24; in that of `O=C(CSc1nc2ccccc2c(=O)n1Cc1ccc(Cl)cc1)NCc1cccs1`, 1.32.
Molecule `CC(O)Cn1ccccc1=N` (stereo not given) had a z-score of 0.218.
In the case of `Cc1nc2nc(-c3cccnc3)[nH]n2c(=O)c1Cc1ccccc1` it was -0.434; in that of `CCNc1nc(NCC)nc(ON=C(C)C)n1`, 0.138; in that of `Cc1ccc(-c2nn(CC(N)=O)c(=O)c3ccccc23)cc1S(=O)(=O)N(C)C`, -0.319.
The result for `CN(C)C(=O)C(=O)c1c(-c2ccccc2)cc2ccccn12` reads -0.294; that for `COc1cccc(N2CCN(C(=O)c3ccc4nc(N5CCCCC5)sc4c3)CC2)c1`, -1.14; that for `COc1ccc(CNC(=O)CCn2c(=O)oc3ccccc32)cc1`, -0.258.
The result for `COc1ccc(C2C(C(=O)OCC(=O)Nc3ccc(C)cc3)CCC(=O)N2c2ccc(OC)cc2)cc1` (stereo not given) reads -0.174.
The molecule `COc1ccc(C2C3=C(CC(C)(C)CC3=O)Nc3c2c(=O)[nH]c(=O)n3Cc2ccccc2)cc1` (stereo not given) displayed a z-score of 0.962.
The result for `O=C(/C=C/c1ccc(Br)cc1)c1ccc(NC2=NCCCS2)cc1` reads 0.158; that for `CCN(CC)CCNC(=O)C1c2cc(OC)c(OC)cc2C(=O)N2CCc3ccccc3C12` (stereo not given), 0.134.
Molecule `CC(C)(C)n1nnnc1C(c1cccnc1)N1CCN(c2cccc(C(F)(F)F)c2)CC1` (stereo not given) registered a z-score of 0.0219.
In turn, `O=C(NCCCN1CCN(c2ccccc2)CC1)Nc1ccccc1C(F)(F)F` returned a z-score of -0.506.
On to `Cc1ccccc1NC(=O)c1ccccc1NC(=O)c1ccco1`, for which the z-score is -0.398.
In turn, `CCN1CCN(CC(=O)Nc2ccc3c(c2)OCO3)C(=O)C1=O` returned a z-score of -0.147.
In the case of `Cc1nc(OCc2ccccc2)c2sc3nc4c(cc3c2n1)COC(C)(C)C4` it was -0.478.
In the case of `CCOC(=O)C1=NNC2(c3ccc(C)cc3)C(=O)N(c3ccc(Cl)cc3)C(=O)C12` (stereo not given) it was -0.0348.
In the case of `N/C(=N\OC(=O)c1cccc2ccccc12)c1cccc([N+](=O)[O-])c1` it was -0.385; in that of `COC(=O)C1C(=O)c2c([nH]c(C(=O)OCCSC)c2C)CC1C` (stereo not given), -0.462; in that of `CN(C)C(=S)Nn1c(-c2ccccc2)nc2ccccc2c1=O`, -0.411.
`CCOc1ccccc1N1CC(O)=C(c2nc3ccccc3s2)C1=N` yielded a z-score of -0.959.
Consider `Cc1ccc(N2C(=O)c3ccc(C(=O)O)cc3C2=O)c(C)c1`, for which the z-score was -0.0255.
`O=C(Cc1ccccc1)Nc1nnc(-c2cccs2)s1` had a z-score of 0.154.
The result for `O=Nc1c(O)n(Cc2ccc(Cl)cc2)c2ccccc12` reads -0.434; that for `COc1ccccc1OCC(=O)OCC(=O)NCCN1C(=O)CSC1=O`, 0.0192; that for `CN1CCN(C(c2cccnc2)c2ccc3cccnc3c2O)CC1` (stereo not given), -0.253.
The result for `CN1/C(=C\C(=O)c2oc3ccccc3c2N)C(C)(C)c2ccccc21` reads -0.447; that for `Cc1ncsc1C(=O)N1N=C2/C(=C/c3ccccc3)CCCC2C1c1ccccc1` (stereo not given), -0.162; that for `Cc1ccc(OCCOCCn2cnc3ccccc3c2=O)c([N+](=O)[O-])c1`, -0.217.
The result for `CN(C)c1ccc(/C=C/c2cc[n+](C)cc2)cc1` reads 1.25.
Molecule `O=C(/C=C/c1ccc(Cl)cc1)NCCN1CCOCC1` had a z-score of 0.246.
The molecule `O=C1c2nc3ccccn3c2C(=O)N1Cc1ccccc1` gave a z-score of 0.737.
The result for `COc1ccc(NC(=O)/C(=C\c2cc(OC)c(OC)cc2[N+](=O)[O-])NC(=O)c2ccccc2)cc1` reads -0.398; that for `Cn1ccs/c1=N\S(=O)(=O)c1ccc(Br)cc1`, 0.0436; that for `Nc1nonc1C(=O)NCCNCc1c(OCc2ccccc2F)ccc2ccccc12`, 0.681.
The result for `CC(C)c1ccc(-c2nnc(N)s2)cc1` reads -0.324.
In the case of `COc1ccc(N2CC(C)Cn3c2nc2c3c(=O)n(Cc3ccc(F)cc3)c(=O)n2C)c(OC)c1` (stereo not given) it was 0.0317; in that of `COc1ccc(C2/C(=C(\O)c3cccc(OC)c3)C(=O)C(=O)N2c2ccccn2)cc1` (stereo not given), -0.28.
`O=C(C1CCCN(S(=O)(=O)c2cnc[nH]2)C1)N(CCc1ccccc1)Cc1ccccc1` (stereo not given) came in with a z-score of -0.416.
The result for `CCCc1nc2oc3c(OCC)ncnc3c2c2c1COC(C)(C)C2` reads -0.236.
In the case of `N=c1sccn1CC(=O)Nc1ccccc1Oc1ccccc1` it was 0.312.
In the case of `CCCOc1ccc(N2CC(C(=O)Nc3ccccc3OC)CC2=O)cc1` (stereo not given) it was -1.76; in that of `CSCCC(NC(=O)c1ccoc1C)C(=O)O` (stereo not given), -0.0493; in that of `CCN1CCN(C(c2ccccn2)c2c(NC(=O)c3ccccc3)sc(C)c2C)CC1` (stereo not given), -0.436.
For `Nc1nc2ccccc2n1CCN1CCCC1`, the z-score was -0.064.
In the case of `C=CCC1(NC(C)c2ccccc2)CCCCC1` (stereo not given) it was 1.5; in that of `C/C(=N\NC(=O)CNC(=O)C(c1ccccc1)c1ccccc1)c1ccc(C(C)(C)C)cc1`, -0.148.
In the case of `CCN1CCN(Cc2ccc(OCc3ccccc3)cc2)CC1` it was 1.12; in that of `C=CCn1c2ccccc2c2nnc(SCC(=O)Nc3cc(C)on3)nc21`, -0.3.
The result for `C=C(C)[C@H]1CC=C(C)/C(=N/NC(=O)CNc2ccccc2OC)C1` reads 0.284.
Turning to `CNC(=O)Cc1csc2ccc(Cl)cc12`, the z-score was determined as 0.0531.
Take `c1csc(C(c2nnnn2C2CCCC2)N2CCCC3(CCCCC3)C2)c1` (stereo not given): the z-score was -0.124.
In the case of `Cc1cc(C)cc(NS(=O)(=O)c2ccc(NC(=S)NC(=O)c3cccs3)cc2)c1` it was 0.901.
Consider `Cc1ccc(C(=O)NC(=S)Nc2ccc3[nH]c(=O)[nH]c3c2)cc1`, for which the z-score was 0.014.
The result for `CN(CCCCCCCCC(=O)/C=N/O)Cc1ccccc1` reads 1.45; that for `COc1ccccc1N(C)S(=O)(=O)c1ccc(C(=O)NC2=NCCS2)cc1`, -0.404; that for `O=C(/C=C/c1ccoc1)c1ccccc1O`, -0.0767.
In the case of `COc1ccccc1-n1c(SCc2cc(=O)oc3cc(O)ccc23)nc2ccccc2c1=O` it was -0.26; in that of `CC(C)=CCC(C)(C)CNC(=O)NC1CCCCC1`, 1.47; in that of `O=C(COC(=O)CCc1nc2ccccc2s1)Nc1ccc(Cl)cn1`, -0.179.
In the case of `CC(C)Sc1nc(N)nc(-c2cccs2)c1C#N` it was -1.07.
`COC(=O)c1cccc(Oc2nc(N3CCOCC3)nc(N3CCOCC3)n2)c1`: the z-score was -0.541.
In the case of `O=c1c(-c2nnc(SCc3ccc(Cl)c(Cl)c3)o2)cccn1Cc1ccccc1` it was -0.239; in that of `CCc1ccc(-c2cc(C(F)(F)F)n3nc(C(=O)Nc4c(C)nn(Cc5ccccc5Cl)c4C)cc3n2)s1`, 1.14.
The result for `O=c1cc(-c2ccccc2)nc(N2CCN(Cc3ccc4c(c3)OCO4)CC2)[nH]1` reads -0.255.
In the case of `COc1ccccc1C(=O)Nc1ccccn1` it was 0.302; in that of `CCCN(CCC)CCNC(=O)c1cc2c(=O)n(C)c3ccccc3c2n1C`, 1.86; in that of `Cc1cccc(CCNC(=O)CCc2c(C)nc3ncnn3c2C)c1`, 0.199.
For `CCCCCCCCn1cnc2c(N)c(C)c(C)cc21`, the z-score was -0.287.
The result for `COc1ccc(NC(=O)NC23CC4(C)CC(C)(CC(C)(C4)C2)C3)cc1OC` reads -0.068; that for `O=C(C[n+]1cc2ccccc2c2ccccc21)c1ccccc1`, -0.107; that for `Cc1cc(C(=O)CSc2n[nH]c(N)n2)c(C)n1-c1ccccc1`, -0.321.
In the case of `OC1(c2ccccc2)CN(c2ccccc2)C2=[N+]1CCS2` (stereo not given) it was -0.308; in that of `CCC(=O)N(CCC1(C(C)C)CCOC(C)(C)C1)Cc1ccco1` (stereo not given), 0.0457.
In the case of `Clc1cccc(OCCN2CCNCC2)c1` it was -0.084.
Regarding `CC1Cc2ccccc2N1C(=O)CSc1nc2ccccc2n1CC(=O)N1CCOCC1` (stereo not given), the z-score turned out to be 0.204.
In the case of `O=C(Nc1cccc(C(=O)N2CCCCCC2)c1)c1ccco1` it was -0.104; in that of `COc1ccc(Cn2nnnc2C(c2ccc(F)cc2)N2CCN(C3CCCC3)CC2)cc1` (stereo not given), active: 3.92; in that of `O=C(NCC1(c2ccccc2)CCCC1)c1ccc(Br)cc1`, -0.348.
In the case of `Cc1ccc(C(=O)/C=C/NCc2ccc(F)cc2)cc1` it was 0.0722; in that of `CCn1c2ccccc2c2cc(NC(=O)CSc3nnc(-c4cccc(C)c4)o3)ccc21`, -0.209.
